Data published in PMC10726135.
The other results are listed elsewhere or left out. At the low end of the ranking, values are background and their order means little. The protein was read in a cell extract, so binding may be indirect.

These sequences were tested against T1, HNF4alpha8 (COS-7 nuclear extract) (UniProt P41235-5) (assay: protein-binding microarray). Conditions: COS-7 nuclear extract on double-stranded Agilent 4x180k PBM; binding buffer, salt, pH and temperature not given; high values mean tight binding; double strand, one strand shown; sequences stand for … in …GCCTAGGGAGATTAGAGTATCGGTCGA.
T1 sequence: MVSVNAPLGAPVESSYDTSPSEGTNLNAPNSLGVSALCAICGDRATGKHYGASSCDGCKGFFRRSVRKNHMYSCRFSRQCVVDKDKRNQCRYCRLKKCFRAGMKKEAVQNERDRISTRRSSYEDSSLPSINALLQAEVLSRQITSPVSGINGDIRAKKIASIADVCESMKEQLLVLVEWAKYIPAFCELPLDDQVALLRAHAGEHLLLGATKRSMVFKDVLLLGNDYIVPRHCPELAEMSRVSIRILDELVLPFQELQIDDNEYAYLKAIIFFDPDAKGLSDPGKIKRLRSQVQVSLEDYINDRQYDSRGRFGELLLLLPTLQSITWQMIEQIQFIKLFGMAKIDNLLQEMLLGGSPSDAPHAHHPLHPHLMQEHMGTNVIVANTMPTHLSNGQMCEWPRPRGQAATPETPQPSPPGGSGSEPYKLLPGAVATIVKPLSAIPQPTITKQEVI

Sequence	binding signal (log2 normalized intensity)
GTTGGACTTTGGACCTTTGTGTGTGTGTGT	8.31
TCCCTGAAGGCCAGGCAGCACAATTTGTGT	-0.959
GAAACAGGGGATGTTGATTCCCCTGTTGTC	0.397
GGCAGAATCTAGGATAACTCTAGTGATCTT	0.846
ACGACCTTTGGACTTGAATTATCCTTATGG	6.99
GACATTCCAGAAATACTTGTTATATTGGAT	1.43
ACAGTTCCAGGAATGGAAACCCCTGTAAGT	1.48
CCAAAGTCTAGATGCTGGGCAGCTTGTGTG	0.363
CCCTTTGGGAAGGGGCAAAAGAGAGCGAAG	-1.23
ACGCCCCACCCCCTCCACCCCTGCCTTTCA	6.34
ATAACTGGTTCAACCTGTTTCCACTCCAGC	-1.17
TGAAGAGAGTTAGGGCCTTGCTATGGAGTG	-0.205
TGCATGGATTTCTCAGTTGAGGAATGGGTA	0.827
TGGGGACCTTTGGGCTCTGACCCGAAGGGT	2.6
CAGAGGAAGCAATCAAGCAATCATATATGC	-1.4
GGCGCTGAACTTTGCCTTGTACACAAAGAC	2.98
GTCTGATCTTCCTGAGGAGAGCAAAGATCA	3.28
CCCACAGAGGGGGTTTGTTTTTTGCCCTTT	5.27
AGTTCTGTCCTTTGTCCCCCACCTGTGAAG	4.64
CTTAATCCTTGTCTGTTTGGCCTTAGGTCC	3.01

Sequence	binding signal (log2 normalized intensity)
CTCCTGGGACAAGGACTTTGGCTAGTGGCT	0.998
ATGTGCCCTTTGGACAGAAATATCAGCAAG	3.43
CCCTGTCTGATAAGGGTGTTTGTCCTTTGT	3.5
CGCCCAGGCTGGAATGCAGTGGCGCAATCT	-1.23
GTGCTGGTACATAGCAGGGGTTAGGTAAAC	-0.36
AAGCCCCTTGGGACAGCTGGCCTCATGCCT	-1.33
GACAGGATGTTCTACACTGCTTACCCTGCA	-1.36
GTTTTTTACTGCTCCTGCTGGCTAGCCACA	-1.31
CCATCCCGTGGACTCTGCCTGCCCTCTCCA	3.19
CCACCAAATCTTACCTAAGGAAGTTAACCC	1.95
CACATTGTTAGCAGAAACCATCTGGCTTGG	-1.31
TTCTGGTCAAAGGTCAATGAAGCTCTTGCT	6.15
CATATGCATTCCTGCCTCAGGCCGACCCCT	4.15
CCAGAGCCTCCAAAGTCCGCTTGCCTGAGG	-0.939
CTTTGCCAACCTGGCCTGTTTGATCTGGTT	0.767
TCATTCTTTAAGTGTGGGGTGACTGACTTA	1.61
TGGGCAGCTTGTGTGCGTTTCCCAGATATC	0.471
AGCAGAGCTGCTGGCAGGAATTTTAAAAGT	-1.31
AGGAGATAATAATACTTATCTTGCAGGGTC	2.1
GAACCAGGAATCCTAGGGAAGAAACATTCT	-1.29
